Measured values published in PMC4336329 (PLoS ONE, 2015).
Among all 310,000 compounds or so, about 14,000 (4.5%) showed an effect of 50% or more. Effects have a minus sign here. The list shows a part of the results.

target: human ether-à-go-go-related gene (hERG) potassium channel (human, UniProt Q12809); experiment: primary screen, population patch clamp on CHO cells stably expressing hERG
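Note: peak tail current of the secondary pulse compared with the same well before compound.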

Chain of human ether-à-go-go-related gene (hERG) potassium channel (Q12809 whole entry, looked up): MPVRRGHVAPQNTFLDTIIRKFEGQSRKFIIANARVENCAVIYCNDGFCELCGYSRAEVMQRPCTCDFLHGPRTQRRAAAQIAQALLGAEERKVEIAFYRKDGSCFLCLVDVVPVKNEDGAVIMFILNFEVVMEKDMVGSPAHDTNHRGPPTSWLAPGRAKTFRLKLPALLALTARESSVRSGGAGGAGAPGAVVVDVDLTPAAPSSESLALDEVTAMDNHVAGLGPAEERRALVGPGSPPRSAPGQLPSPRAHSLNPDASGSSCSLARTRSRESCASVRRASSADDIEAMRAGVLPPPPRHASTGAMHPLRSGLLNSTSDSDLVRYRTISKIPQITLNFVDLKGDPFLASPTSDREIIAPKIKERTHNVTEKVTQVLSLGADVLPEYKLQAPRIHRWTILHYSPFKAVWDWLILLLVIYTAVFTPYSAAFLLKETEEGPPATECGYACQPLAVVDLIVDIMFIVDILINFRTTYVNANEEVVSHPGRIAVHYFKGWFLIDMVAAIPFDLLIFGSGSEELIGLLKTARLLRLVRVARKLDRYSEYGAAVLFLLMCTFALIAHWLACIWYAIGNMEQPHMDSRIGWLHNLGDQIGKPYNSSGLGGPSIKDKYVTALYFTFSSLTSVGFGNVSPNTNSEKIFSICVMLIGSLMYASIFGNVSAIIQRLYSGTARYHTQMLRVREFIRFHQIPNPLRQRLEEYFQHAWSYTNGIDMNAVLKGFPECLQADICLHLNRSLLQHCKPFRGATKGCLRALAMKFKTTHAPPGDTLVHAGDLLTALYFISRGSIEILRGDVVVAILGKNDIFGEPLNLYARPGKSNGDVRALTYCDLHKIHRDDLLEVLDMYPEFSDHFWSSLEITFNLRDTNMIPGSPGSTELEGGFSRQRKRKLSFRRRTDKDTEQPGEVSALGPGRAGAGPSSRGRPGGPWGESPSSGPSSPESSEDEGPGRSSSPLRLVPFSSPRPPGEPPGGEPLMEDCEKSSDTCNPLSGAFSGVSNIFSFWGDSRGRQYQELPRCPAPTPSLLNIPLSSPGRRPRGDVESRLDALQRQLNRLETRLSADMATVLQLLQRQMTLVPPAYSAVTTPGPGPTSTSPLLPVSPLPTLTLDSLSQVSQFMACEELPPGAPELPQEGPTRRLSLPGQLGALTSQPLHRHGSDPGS

First: O=C(CNC(=O)c1ccco1)N/N=C/c1cccs1
Second: COc1ccc(Br)cc1/C=N/NC(=O)CNC(=O)C1COc2ccccc2O1 (stereo not shown)
The “hERG current change (%, negative = inhibition) at 10uM” value of the first is higher: 14.9% for the first, 2.06% for the second.

Going from `CCNC(=S)N=Nc1c(O)[nH]c2ccc([N+](=O)[O-])cc12` to `COc1ccc([N+](=O)[O-])cc1N(CC(=O)Nc1ccccc1C(=O)NC(C)C)S(C)(=O)=O`, the “hERG current change (%, negative = inhibition) at 10uM” value rises from -7.01% to 20.9%.

Going from `Clc1cccc(/C(Cc2nc3ccccc3[nH]2)=N\Nc2ccccc2)c1` to `Cc1ccc(NC(=O)CSc2ccccc2NC(=O)c2ccccc2)cc1Cl`, the “hERG current change (%, negative = inhibition) at 10uM” value falls from 22.1% to 4.25%.

First: CCc1ccc(C(=O)COC(=O)C(CCSC)NC(=O)C23CC4CC(CC(C4)C2)C3)cc1 (stereo not shown)
Second: CC(C)C[C@H](NC(=O)c1ccc(OC2CCN(C(=O)C3CC3)CC2)cc1)C(N)=O
The “hERG current change (%, negative = inhibition) at 10uM” value of the first is higher: 10.9% for the first, 0.679% for the second.

Compared with `COCCNC(=O)C(=O)NNC(=O)CCc1ccccc1`, `COCCCNC(=O)c1ccccc1C(F)(F)F` is lower in “hERG current change (%, negative = inhibition) at 10uM” value: 8.78% for the first, 2.69% for the second.

Compared with `CCCCCN(C(=O)CCC(=O)OCC(=O)c1cccc(OC)c1)c1c(N)n(CCCC)c(=O)[nH]c1=O`, `CCCCCCC[C@H](N)[C@H](O)C(=O)N(C)[C@@H](CCS(C)=O)C(=O)N[C@@H](Cc1ccc(O)cc1)C(=O)N[C@@H](Cc1ccc(O)cc1)C(=O)O` (stereo partly shown) is higher in “hERG current change (%, negative = inhibition) at 10uM” value: -64.6% for the first, 8.09% for the second.

First: COc1ccccc1CNC(=O)COC(=O)c1ccc(Cl)c(N)c1
Second: COC(=O)CC1COc2ccccc2N1C(=O)c1ccc(Cl)cc1 (stereo not shown)
The “hERG current change (%, negative = inhibition) at 10uM” value of the first is higher: 21.8% for the first, -13.9% for the second.

Going from `Nc1nnc(SCC(=O)OCc2ccccc2)s1` to `O=C(CSc1nnc(SCc2ccc(Cl)cc2)s1)N/N=C/c1ccccc1C(=O)O`, the “hERG current change (%, negative = inhibition) at 10uM” value falls from 9.61% to 4.17%.

First: CN1c2ccc([N+](=O)[O-])cc2CC2(C(=O)NC(=O)NC2=O)C1c1ccccc1 (stereo not shown)
Second: C[C@]12C(=O)N(c3ccc(Br)cc3)C(=O)N1[C@@H]1c3ccccc3OC[C@@H]1[C@H]2c1ccccc1
The “hERG current change (%, negative = inhibition) at 10uM” value of the first is lower: 1.14% for the first, 33.6% for the second.

First: Cc1noc(C)c1COC(=O)c1ccc2c(c1)OCCO2
Second: Cc1ccc(/C(N)=N/OC(=O)c2ccc3c(c2)OCO3)cc1
The “hERG current change (%, negative = inhibition) at 10uM” value of the first is lower: -13.8% for the first, -7.81% for the second.

Going from `COCCn1c(SCC(=O)NCc2ccco2)nnc1C(C)C` to `COCCn1c(SCC(=O)c2c[nH]c3ccccc23)nnc1-c1ccncc1`, the “hERG current change (%, negative = inhibition) at 10uM” value falls from 20.4% to -13.3%.

Compared with `CCOC(=O)c1ccc(OCc2nc(-c3cccs3)no2)cc1`, `O=C(NNc1ncnc2sccc12)c1ccc(Cl)cc1` is higher in “hERG current change (%, negative = inhibition) at 10uM” value: -1.94% for the first, 23.1% for the second.

Compared with `Cc1ccc(C(=O)Nc2nc3ccccc3c(=O)s2)cc1`, `Cc1nc2ccc(C(=O)Nc3ccc(N(C)C)cc3)cc2s1` is lower in “hERG current change (%, negative = inhibition) at 10uM” value: 15.9% for the first, 6.94% for the second.

First: COCCCNC(=O)CN1CCN(Cc2ccccc2Cl)C1=O
Second: COCCNC(=O)Cn1cnc2sc(C)c(S(=O)(=O)N3CCC(C)CC3)c2c1=O
The “hERG current change (%, negative = inhibition) at 10uM” value of the first is higher: 27.2% for the first, 8.9% for the second.

Compared with `Cc1cccc2c1OCC/C2=N\NC(=O)COc1ccccc1Cl`, `COc1ccccc1N1CCc2c(C)nc3c(OC)cccc3c21` is lower in “hERG current change (%, negative = inhibition) at 10uM” value: 17.2% for the first, -61% for the second.

Compared with `Cc1cc(C(=O)Cn2nnc3ccccc3c2=O)c(C)n1-c1c(C)n(C)n(-c2ccccc2)c1=O`, `Cc1ccc(-n2c(C)cc(C(=O)COc3cccnc3[N+](=O)[O-])c2C)cc1` is higher in “hERG current change (%, negative = inhibition) at 10uM” value: 4.69% for the first, 11.2% for the second.

First: CCCNC(=O)N1CCN(c2ncccn2)CC1
Second: CCOC(=O)N1CCN(c2c(Nc3cc(C)[nH]n3)c(=O)c2=O)CC1
The “hERG current change (%, negative = inhibition) at 10uM” value of the first is higher: 10.4% for the first, 9.42% for the second.

Compared with `Cc1c(C(=O)N2CCCCC2)c(S(=O)(=O)NCc2ccc(F)cc2)c(C)n1C`, `Cc1cccc(C)c1NC(=O)COC(=O)CCc1ccc(S(=O)(=O)N2CCCCC2)cc1` is lower in “hERG current change (%, negative = inhibition) at 10uM” value: 7.64% for the first, -1.8% for the second.

First: Cc1cc(COc2ccccc2OCc2cc(C)no2)on1
Second: CCn1c(=O)c2cc(C(=O)Nc3cc(C)on3)sc2c2ccccc21
The “hERG current change (%, negative = inhibition) at 10uM” value of the first is higher: 6.73% for the first, -13.6% for the second.

First: COc1ccc(C2/C(=C(/O)c3ccccc3)C(=O)C(=O)N2CCO)cc1 (stereo not shown)
Second: COc1cccc(C(=O)Nc2cccc3c2ccc2cccn23)c1
The “hERG current change (%, negative = inhibition) at 10uM” value of the first is lower: -21.1% for the first, 25.2% for the second.

First: COCCn1c(CN2CCN(c3cccc(Cl)c3)CC2)nc2c1c(=O)n(C)c(=O)n2C
Second: Cc1cc2cc(CN(CCN3CCOCC3)C(=O)Nc3ccccc3F)c(=O)[nH]c2cc1C
The “hERG current change (%, negative = inhibition) at 10uM” value of the first is lower: -53.9% for the first, -24.5% for the second.

First: Cc1cc([N+](=O)[O-])nn1CC(=O)N(C)Cc1ccccc1
Second: CCN(CC)S(=O)(=O)c1ccc(O)c(C(=O)OCC(=O)N(C)Cc2ccccc2)c1
The “hERG current change (%, negative = inhibition) at 10uM” value of the first is higher: 13.7% for the first, -55.4% for the second.

Compared with `Cc1cc(C)c2nc(-c3ccccn3)cc(C(=O)NCc3ccco3)c2c1`, `O=C(Nn1c(=O)[nH]c2ccccc2c1=O)c1ccco1` is lower in “hERG current change (%, negative = inhibition) at 10uM” value: 11.2% for the first, -3.87% for the second.

First: Oc1ccc2nnc3c(Br)cnn3c2c1
Second: Clc1ccc(-c2nnc(N3CCCC3)nn2)cc1
The “hERG current change (%, negative = inhibition) at 10uM” value of the first is higher: 19.2% for the first, 10.8% for the second.

Going from `O=C(c1cc(F)c(F)cc1Cl)N1CCN(CCc2ccccc2)CC1` to `O=C(c1ccccc1OCc1ccc(Cl)cc1)N1CCN(c2ccccn2)CC1`, the “hERG current change (%, negative = inhibition) at 10uM” value rises from -71.6% to -42.4%.

First: O=C(NC(=O)c1ccccc1)Nc1ccccc1O
Second: O=S(=O)(NCc1ccccc1)c1ccc(F)cc1Br
The “hERG current change (%, negative = inhibition) at 10uM” value of the first is higher: 14.7% for the first, -12.3% for the second.

Going from `Cc1cc(C)cc(NS(=O)(=O)c2cc3[nH]c(=O)c(=O)[nH]c3cc2C)c1` to `Cc1c(CN(C)C)c2c(n1Cc1ccccc1)C(=O)c1ccc(Br)cc1-2.Cl`, the “hERG current change (%, negative = inhibition) at 10uM” value falls from 6.15% to -74.5%.

Going from `COc1ccc(C(=O)NCC(=O)OC2CCCCC2=O)cc1` (stereo not shown) to `COc1ccc(NC(=O)C/C(C)=N/NC(=O)C(=O)NC2CCCCC2)c(OC)c1`, the “hERG current change (%, negative = inhibition) at 10uM” value rises from -13.5% to -8.46%.

Going from `COc1ccc(NC(=O)N2CCCCCC2)cc1OC` to `Cc1cccc(NC(=O)NC2CCCCCCC2)c1`, the “hERG current change (%, negative = inhibition) at 10uM” value falls from 12.7% to 2.16%.

First: Cc1nnc(SCC(=O)NC2CCCCC2)n(N)c1=O
Second: Cc1cc(C)c2c(C)nn(C3CCCCC3)c2n1
The “hERG current change (%, negative = inhibition) at 10uM” value of the first is lower: -3.9% for the first, 8.89% for the second.

Going from `CN1CCN(C2=NC3(CCCC3)C(C#N)C(=O)N2)CC1` (stereo not shown) to `COc1ccccc1COCC(O)CNCC1(N2CCCCC2)CCCCC1.O=C(O)C(=O)O` (stereo not shown), the “hERG current change (%, negative = inhibition) at 10uM” value falls from 6.7% to -30.9%.

Compared with `CO/N=C(/CS(=O)c1ccc(Br)cc1)c1ccc(OC)cc1` (stereo not shown), `COc1cccc(OC)c1C(=O)Nc1nc(N)n(-c2ccccc2)n1` is higher in “hERG current change (%, negative = inhibition) at 10uM” value: -24.1% for the first, 1.74% for the second.

Compared with `Cc1cccc(NC(=O)Nc2ccc(Cl)cc2)n1`, `CS/C(=N\S(=O)(=O)c1cccs1)Nc1ccc(Cl)cc1` is lower in “hERG current change (%, negative = inhibition) at 10uM” value: 15.3% for the first, -13.8% for the second.

Going from `O=C(CSc1nc2sc3c(c2c(=O)[nH]1)CCC3)NCCO` to `CCOC(=O)CSc1nc2sc(C)c(C)c2c(=O)n1N`, the “hERG current change (%, negative = inhibition) at 10uM” value rises from 3.33% to 14.6%.

Compared with `COc1ccc2c(c1)c(-c1csc(N)n1)c(C)n2C`, `COc1ccc(Nc2cc(NCCCO)c([N+](=O)[O-])c3nonc23)cc1` is higher in “hERG current change (%, negative = inhibition) at 10uM” value: 5.5% for the first, 17.7% for the second.

Compared with `CCCC(C(=O)NC1CCCC1)N(CCN(CC)CC)C(=O)c1snc(C(N)=O)c1N` (stereo not shown), `Cc1ccnc2nc(C(=O)OCC(=O)Nc3ccccc3C(C)(C)C)nn12` is lower in “hERG current change (%, negative = inhibition) at 10uM” value: -1.12% for the first, -1.85% for the second.

Compared with `CCCOc1ccc(C2c3c(oc4cc(C)c(C)cc4c3=O)C(=O)N2CCCN(C)C)cc1OCC` (stereo not shown), `COc1cc(CN2CC(=O)N(c3ccccc3Cl)C2=S)cc(OC)c1OC` is higher in “hERG current change (%, negative = inhibition) at 10uM” value: 7.65% for the first, 17.7% for the second.

Compared with `CC1CCC/C(=C\Nc2ccc(O)cc2)C1=O` (stereo not shown), `O=C(Nc1ccc(F)cc1)Nc1ccc(S(=O)(=O)N2CCCC2)cc1` is higher in “hERG current change (%, negative = inhibition) at 10uM” value: -0.0111% for the first, 6.23% for the second.

Going from `O=C(Nc1cccc(S(=O)(=O)N2CCOCC2)c1)C1CCCN(C(=O)c2ccc(Cl)cc2)C1` (stereo not shown) to `O=C(CCNC(=O)N1CCn2c1nc1ccccc12)NCc1ccc(Cl)cc1`, the “hERG current change (%, negative = inhibition) at 10uM” value falls from -32.4% to -36.3%.

First: CC1CN(c2cc3nccnc3cc2F)CC(C)O1 (stereo not shown)
Second: Cc1nonc1CC(=O)N1CCc2c([nH]c3ccccc23)C1c1ccccc1F (stereo not shown)
The “hERG current change (%, negative = inhibition) at 10uM” value of the first is lower: -2.42% for the first, 21.4% for the second.

First: CCN1C(=O)/C(=C/C=C2/Sc3ccc4ccccc4c3N2CCO)SC1=S
Second: NS(=O)(=O)c1ccc(NC(=O)/C=C/c2cn(-c3ccccc3)nc2-c2cccc(Cl)c2)cc1
The “hERG current change (%, negative = inhibition) at 10uM” value of the first is lower: 10% for the first, 44.1% for the second.

Compared with `O=C(Nc1ccc(OCC(F)(F)C(F)F)c(C(F)(F)F)c1)c1ccccc1O`, `O=C(NCc1ccccc1)c1ccc(Cl)c(NC2=NC3CS(=O)(=O)CC3S2)c1` (stereo not shown) is lower in “hERG current change (%, negative = inhibition) at 10uM” value: 9.65% for the first, -0.123% for the second.

First: CC1CC(C)(C)CC(=O)C1C(=O)c1ccccc1 (stereo not shown)
Second: Cc1nn(-c2ccccc2)c(N2CCCC2)c1/C=N/O
The “hERG current change (%, negative = inhibition) at 10uM” value of the first is higher: 16.4% for the first, -11.4% for the second.

Going from `O=C(NC1CC1)C1CCN(Cc2cnn(-c3ccccc3)c2-n2cccc2)CC1` to `CCOC(=O)c1cc2n(n1)C(C(F)(F)F)CC(C)N2` (stereo not shown), the “hERG current change (%, negative = inhibition) at 10uM” value rises from -23.5% to 10.4%.
